Reference: PubChem BioAssay AID686978 (National Center for Advancing Translational Sciences (NCATS), 2013)
Where “and” joins values, the source holds several entries; their conditions need not be identical. Identical values can stand only once. Out of some 420,000 compounds screened, about 64,000 (15%) were called active. The shares of active, inactive and inconclusive entries below differ from those in the screen. Calls come from the whole dose curve; as a rule, active = well fitted inhibition curve with a large enough effect; inconclusive = small, poorly fitted or top-dose-only effect; inactive = flat fitted curve, though single readings scatter. A potency beside an inconclusive call is a rough fit, not a confirmed value. A structure can be active in one record and inactive in another.

Assay: qHTS for Inhibitors of human tyrosyl-DNA phosphodiesterase 1 (TDP1): qHTS in cells in absence of CPT; note: nearly all actives have a fitted effect of over 55% in size
Conditions: DT40 Tdp1-/- hTDP1 cells, no CPT, ATP luminescence, 48 h; series mostly up to 46.2 µM
Summary of the method: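 Readout: luminescence from CellTiter-Glo after 30 min in the dark at RT. Cells: DT40 Tdp1-/- with stable hTDP1, 400/well. Exposure: compounds alone, ≥48 hr, 37 °C.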
Potency is the fitted concentration of half-maximal effect; tags give direction and shape of the fitted curve.

| SMILES | Potency |
| --- | --- |
| COc1cc(-c2cc3nc(NCCN(C)C)ccn3n2)cc(OC)c1OC | inactive |
| O=C(Nc1ncc2c(n1)-c1ccccc1OC2)c1ccccc1Cl | inconclusive: 23.1 µM [inhibitor, single point] |
| Oc1oc(-c2ccccc2Br)nc1C=Nc1ccc(Br)cn1 | inconclusive: 29.1 µM [inhibitor, single point] |
| Cc1cccc(Nc2nc3c(s2)CCCC3)c1 | active: 18.4 µM |
| Cc1ccc(C(=O)N2CCCC2)cc1Br | inactive |
| Cc1sc2nc(SCC(=O)N3CC(C)OC(C)C3)n(C)c(=O)c2c1C (stereo not drawn) | active: 13 µM |
| c1ccc(-c2onc(-c3ccco3)c2-c2ccc3c(c2)OCO3)cc1 | active: 11.2 µM |
| COc1ccc(-n2c(C)nc3c(cnn3-c3ccccc3)c2=O)cc1 | active: 16.4 µM |
| O=C(Nc1ccc(OC(F)(F)F)cc1)C1CCCN(C(=O)c2ccc(Cl)cc2)C1 (stereo not drawn) | active: 11.6 µM |
| NS(=O)(=O)c1ccc(NC(=O)COC(=O)COc2ccc(Cl)cc2)cc1 | inactive |
| CCCC1(C)Nc2ccccc2-c2nc3ccccc3n21 (stereo not drawn) | inconclusive: 16.4 µM [inhibitor, partial curve, poor fit] |
| CC(=O)N1c2ccc(S(=O)(=O)N3CCC(C(=O)Nc4cccc(Cl)c4C)CC3)cc2CC1C (stereo not drawn) | active: 23.1 µM |
| N#CC(C#N)=C1C=C2C=C(N3CCCCCC3)CCC2CC1 (stereo not drawn) | inconclusive: 18.4 µM [inhibitor, single point] |
| O=C(NCCCN1CCN(c2cccc(Cl)c2)CC1)c1nc(-c2ccncc2)no1 | inconclusive: 20.6 µM [inhibitor, single point] |
| CC1=C(C/C=C(\C)CCC[C@H](C)CCC[C@H](C)CCCC(C)C)C(=O)c2ccccc2C1=O | inconclusive: 29.1 µM [inhibitor, single point] |
| COc1ccc(Nc2nc(-c3cccc([N+](=O)[O-])c3)nc3ccccc23)cc1 | active: 14.6 µM |
| COC(=O)C(=NNc1c(C)n(C)n(-c2ccccc2)c1=O)C(=O)OC | inactive |
| CCN(CC)S(=O)(=O)c1ccc(C(=O)NCC(=O)NCCCc2ccccc2)cc1 | inconclusive: 18.4 µM [inhibitor, partial curve, poor fit] |
| COCCn1c(=O)c(-c2cc(F)cc(F)c2)nc2cnc(Oc3ccc(OC)cc3)nc21 | inconclusive: 23.1 µM [inhibitor, single point] |
| CCCc1nc2ccccc2n1CCc1ccccc1 | active: 20.6 µM |
| COc1ccc(NS(=O)(=O)c2cccc(C(=O)NCc3ccco3)c2)cc1 | inconclusive: 29.1 µM [inhibitor, single point] |
| Cc1ccsc1/C=N/NC(=O)c1ccccn1 | inconclusive: 29.1 µM [inhibitor, single point] |
| CN1/C(=C/c2cccc[n+]2CCO)Sc2ccccc21 | inconclusive: 16.4 µM [inhibitor, partial curve] |

| SMILES | Potency |
| --- | --- |
| COc1ccc(CNC(=O)CSc2nc3ccc(C)cc3[nH]2)cc1 | inconclusive: 29.1 µM [inhibitor, single point] |
| Cc1cccc(C)c1NC(=O)C1CCCN1S(=O)(=O)c1ccccc1 (stereo not drawn) | inconclusive: 25.9 µM [inhibitor, single point] and inconclusive: 16.4 µM [inhibitor, single point] |
| Cc1cccc(Cn2cc(S(=O)(=O)c3ccccc3)c(=O)c3cc(F)c(N4CCOCC4)cc32)c1 | active: 23.1 µM |
| COc1cc(C(=S)N2CCOCC2)cc(OC)c1OC(=O)c1ccc(F)cc1 | inconclusive: 23.1 µM [inhibitor, single point] |
| CC(Oc1ccc(Br)cc1)C(=O)Nc1ccncc1 (stereo not drawn) | inconclusive: 29.1 µM [inhibitor, single point] |
| COc1ccc(OCc2cc(C(=O)NCc3cccc(C)n3)no2)c(Cl)c1 | inactive |
| COC(=O)c1ccc(CSc2nc3c(cnn3-c3ccc(C)c(C)c3)c(=O)[nH]2)o1 | active: 25.9 µM |
| NC(Cc1ccc(F)cc1)c1csc(Nc2cc(Oc3ccccc3)ncn2)n1 (stereo not drawn) | inconclusive: 29.1 µM [inhibitor, single point] |
| Cc1ccc(NC(=O)c2ccc(CSc3nnnn3C)cc2)cc1 | inactive |
| CCc1ccc2ncc3c(-c4ccc(F)cc4)nn(CC(=O)NC4CCCCC4)c3c2c1 | inactive |
| CC(C)C[C@H](NC(=O)c1nc[nH]c1C(=O)NC(c1ccccc1)c1ccccc1)C(=O)OCc1ccccc1 | inconclusive: 29.1 µM [inhibitor, single point] |
| O=C(OCCOCCO)c1ccccc1Nc1cccc(C(F)(F)F)c1 | inconclusive: 12.8 µM [inhibitor, single point] |
| COc1ccc(OC)c(CN2CCN(C(=O)c3cccc(S(=O)(=O)Nc4ccc(C)cc4)c3)CC2)c1 | inconclusive: 20.6 µM [inhibitor, partial curve] |
| Cc1ccc2c(CC(=O)Nc3ccc(S(=O)(=O)N4CCCCC4C)cc3)coc2c1C (stereo not drawn) | inconclusive: 23.1 µM [inhibitor, single point] |
| C=CCn1c(SCC(=O)Nc2cccc(S(=O)(=O)N(C)c3ccccc3)c2)nnc1C1CC1 | inconclusive: 25.9 µM [inhibitor, single point] |
| COc1cccc(C2c3c(-c4cc(Cl)c(C)cc4O)n[nH]c3C(=O)N2Cc2cccnc2)c1 (stereo not drawn) | active: 16.4 µM |
| CCOC(=O)c1oc2ccc(S(=O)(=O)n3nc(-c4ccc(OC)cc4)cc3N)cc2c1C | active: 2.91 µM |
| CN(C)c1ccc(CNC(=O)Cc2ccc(NC(=O)N3CCCCc4ccccc43)cc2)cc1 | active: 20.6 µM |
| O=c1c2c(n3cnnc3n1-c1ccccc1)-c1ccccc1CC21CCCCC1 | inconclusive: 4.61 µM [inhibitor, full curve] |
| Cc1cccc(Nc2nc(-c3ccccn3)cs2)n1 | active: 6.51 µM |
| COc1ccc(N2CCN(CCCNC(=O)c3nnc(Cc4ccc(F)cc4)o3)CC2)cc1 | inconclusive: 29.1 µM [inhibitor, single point] |
| COc1cccc(-c2cc(NC=O)c3ncc(-c4cccc(C(=O)N(C)C)c4)n3c2)c1 | inconclusive: 23.1 µM [inhibitor, single point] |
| Cc1cc(OCC(O)CN2CCN(C)CC2)ccc1C(C)C (stereo not drawn) | inconclusive: 29.1 µM [inhibitor, single point] |

| SMILES | Potency |
| --- | --- |
| CCSc1ccccc1C(=O)N1CCN(c2ccc([N+](=O)[O-])cc2)CC1 | active: 16.4 µM |
| CC1=Nc2nc(N3CCCCC3)c(C#N)c3c4c(nc(c23)N1)N(c1ccc(C(C)C)cc1)C(=O)C4 | inconclusive: 23.1 µM [inhibitor, single point] |
| O=C(Oc1c(Br)cc(C(=S)N2CCOCC2)cc1Br)c1ccc(Cl)cc1 | inconclusive: 29.1 µM [inhibitor, single point] |
| O=C(NCCC1=CCCCC1)C(=O)NCC(c1ccco1)N1CCN(c2ccc(F)cc2)CC1 (stereo not drawn) | inconclusive: 16.4 µM [inhibitor, single point] |
| Fc1ccc(-c2noc3ncnc(NCCCN4CCN(c5ccccc5)CC4)c23)cc1 | inconclusive: 29.1 µM [inhibitor, single point] |
| Cc1cc(=O)[nH]c(SCC(=O)Nc2nnc(SCc3ccccc3)s2)n1 | inconclusive: 13 µM [inhibitor, partial curve] |
| Cc1ccc2c(=O)cc(C(=O)Nc3sc4c(c3C(=O)NCc3cccnc3)CCCC4)oc2c1C | inconclusive: 5.8 µM [inhibitor, single point] |
| COc1cc(-c2c(OC)cccc2OC)cc2c1OCCN(C(=O)CCC(=O)c1ccc(F)cc1)C2 | inactive |
| O=C(O)c1cccc2c1Cc1cc(Cl)ccc1-2 | inactive |
| NC(=O)c1ccc(NC(=O)COC(=O)CCC(=O)c2ccc(Cl)cc2)cc1 | inactive |
| Cn1cc(C2N3CC4(C)CN2CC(C)(C3)C4=O)c2ccccc21 (stereo not drawn) | inactive |
| COc1ccc2c(C(=O)CN3CCN(CCO)CC3)c[nH]c2c1 | inactive |
| O=C(CSc1ccc(Cl)cc1)Nc1nnc(-c2cccc([N+](=O)[O-])c2)s1 | inconclusive: 18.4 µM [inhibitor, single point] |
| COc1ccc(C2N(C(=O)N(C)C)CCN2S(=O)(=O)c2ccc(OC)cc2)cc1 (stereo not drawn) | inconclusive: 25.9 µM [inhibitor, single point] |
| COc1ccc(Cn2ccc3nc(C)c(C(=O)NCc4ccc(F)cc4)cc3c2=O)cc1 | inconclusive: 29.1 µM [inhibitor, single point] |
| COc1cc(C(=O)Oc2ccccc2)ccc1OCc1c(C)noc1C | inconclusive: 25.9 µM [inhibitor, partial curve, poor fit] |
| CCSc1ncc(CO)c(N)n1 | inactive |
| Cc1ccsc1CN1CCc2nnc(CCNC(=O)c3ccc(F)cc3)n2CC1 | inactive |
| O=C1NC[C@H](Cc2ccccc2)N(C[C@H]2CCCN2C[C@H](Cc2ccc(O)cc2)N2C[C@H](Cc3ccc(O)cc3)N(CC3CCCCCC3)C(=O)C2=O)C1=O | inconclusive: 16.4 µM [inhibitor, single point] |
| Cc1cc(C(=O)OCC(=O)Nc2cc(S(=O)(=O)N(C)C)ccc2C)c2ccccc2n1 | inconclusive: 14.6 µM [inhibitor, partial curve] |
| CCOC(=O)c1ccc(NC(=O)c2ccc(NC(=O)C3CCCO3)cc2)cc1 (stereo not drawn) | inconclusive: 29.1 µM [inhibitor, single point] |
| CC1=C(C(=O)N(C(C)C)C(C)C)CC(CC(=O)NC2CC2)C(=O)N1CCCN1CCCC1=O (stereo not drawn) | inconclusive: 29.1 µM [inhibitor, single point] |
